Some of the results follow. Most values come without repeats; read them as rough.
Tested on: A2058
Assay: cell count relative to DMSO control; melanoma cells; higher = more viable cells
Conditions: library dose: standard library concentration; 72 h
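Further: cells treated in 1,536-well plates, then fixed and DAPI-stained, with nuclei counted from automated high-throughput microscope images.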

| SMILES | cell count [%] |
| --- | --- |
| CC[C@]1(O)C[C@H]2CN(CCc3c([nH]c4ccccc34)[C@@](C(=O)OC)(c3cc4c(cc3OC)N(C=O)[C@H]3[C@@](O)(C(=O)OC)[C@H](OC(C)=O)[C@]5(CC)C=CCN6CC[C@]43[C@@H]65)C2)C1 [vincristine] + COc1ccc(C2=N[C@@H](c3ccc(Cl)cc3)[C@@H](c3ccc(Cl)cc3)N2C(=O)N2CCNC(=O)C2)c(OC(C)C)c1 [Nutlin-3] (first compound 0.0005 µM, partner dose 0.5 µM) | 72 |
| Cc1cc(Nc2cc(N3CCN(C)CC3)nc(Sc3ccc(NC(=O)C4CC4)cc3)n2)n[nH]1 [Tozasertib] + COc1ccc(Cl)c(Nc2nc3ccccc3nc2NS(=O)(=O)c2cccc(NC(=O)C(C)(C)N)c2)c1 [XL147] (first compound 0.03 µM, partner dose 4 µM) | 67.3 |
| N#CC[C@H](C1CCCC1)n1cc(-c2ncnc3[nH]ccc23)cn1 [ruxolitinib] + CS(=O)(=O)c1ccc(C(=O)Nc2ccc(Cl)c(-c3ccccn3)c2)c(Cl)c1 [vismodegib] (first compound 5 µM, partner dose 5 µM) | 91.4 |
| Cc1cc(Nc2cc(N3CCN(C)CC3)nc(Sc3ccc(NC(=O)C4CC4)cc3)n2)n[nH]1 [Tozasertib] + Nc1ncn([C@H]2C[C@H](O)[C@@H](CO)O2)c(=O)n1 [decitabine] (first compound 0.03 µM, partner dose 0.5 µM) | 49.9 |
| CC[C@]1(O)C[C@H]2CN(CCc3c([nH]c4ccccc34)[C@@](C(=O)OC)(c3cc4c(cc3OC)N(C=O)[C@H]3[C@@](O)(C(=O)OC)[C@H](OC(C)=O)[C@]5(CC)C=CCN6CC[C@]43[C@@H]65)C2)C1 [vincristine] + O=c1[nH]nc(Sc2ncc([N+](=O)[O-])s2)n1-c1ccc2c(c1)OCCO2 [BI78D3] (first compound 0.0005 µM, partner dose 1 µM) | 72.5 |
| N#CC[C@H](C1CCCC1)n1cc(-c2ncnc3[nH]ccc23)cn1 [ruxolitinib] + COc1ccc(Cl)c(Nc2nc3ccccc3nc2NS(=O)(=O)c2cccc(NC(=O)C(C)(C)N)c2)c1 [XL147] (first compound 5 µM, partner dose 4 µM) | 83.1 |
| N#CC[C@H](C1CCCC1)n1cc(-c2ncnc3[nH]ccc23)cn1 [ruxolitinib] + CC(C)C[C@H](NC(=O)[C@H](Cc1ccccc1)NC(=O)c1cnccn1)B(O)O [Bortezomib] (first compound 5 µM, partner dose 0.005 µM) | 19.2 |
| CC[C@]1(O)C[C@H]2CN(CCc3c([nH]c4ccccc34)[C@@](C(=O)OC)(c3cc4c(cc3OC)N(C=O)[C@H]3[C@@](O)(C(=O)OC)[C@H](OC(C)=O)[C@]5(CC)C=CCN6CC[C@]43[C@@H]65)C2)C1 [vincristine] + Cc1cc(N2CCOCC2)cc2[nH]c(-c3c(NC[C@@H](O)c4cccc(Cl)c4)cc[nH]c3=O)nc12 [BMS536924] (first compound 0.0005 µM, partner dose 1 µM) | 7.2 |
| Cc1cc(Nc2cc(N3CCN(C)CC3)nc(Sc3ccc(NC(=O)C4CC4)cc3)n2)n[nH]1 [Tozasertib] + CN(c1ncccc1CNc1nc(Nc2ccc3c(c2)CC(=O)N3)ncc1C(F)(F)F)S(C)(=O)=O [PF562271] (first compound 0.03 µM, partner dose 0.4 µM) | 68.4 |
| CC[C@]1(O)C[C@H]2CN(CCc3c([nH]c4ccccc34)[C@@](C(=O)OC)(c3cc4c(cc3OC)N(C=O)[C@H]3[C@@](O)(C(=O)OC)[C@H](OC(C)=O)[C@]5(CC)C=CCN6CC[C@]43[C@@H]65)C2)C1 [vincristine] + C[C@@H](Oc1cc(-c2cnn(C3CCNCC3)c2)cnc1N)c1c(Cl)ccc(F)c1Cl [Crizotinib] (first compound 0.0005 µM, partner dose 1 µM) | 104 |
